PubChem BioAssay AID624417 (National Center for Advancing Translational Sciences (NCATS), 2012)
About 6,400 (1.6%) of roughly 410,000 compounds were called active. Inconclusive results, whose numbers are uncertain, are shown with a selection of clear calls. Calls follow the shape of the dose curve; as a rule, active = well fitted inhibition curve with a large enough effect; inconclusive = small, poorly fitted or top-dose-only effect; inactive = no such curve, though single readings can be large or run the other way. Potencies of inconclusive entries are left out as doubtful fits.

These molecules were tested against Glucagon-like peptide 1 receptor (Homo sapiens) (UniProt P43220) (assay: qHTS of GLP-1 Receptor Inverse Agonists (Inhibition Mode)). Conditions: HEK293 GLP-1R CRE-luciferase, luminescence, 24 h, GLP-1R form is constitutively active; activity change, negative = inhibition: at 38.3 µM (top of the series) unless noted.
How it was run: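 Stable HEK293 clone (constitutively active GLP-1R + cAMP-response luciferase); 200 cells/uL plated, 12 h pre-culture, compound 24 hr, 37 deg C/5% CO2; detection reagent 12 min RT; luminescence.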
% is scaled to controls: 0 for no effect and ±100 for the full control effect; potency is read from the fitted curve at half-maximal effect; tags tell the direction and shape of the fitted curve.
Also: nearly all actives have a fitted effect of over 55% in size.

Chain of UniProt P43220 (P43220 whole entry, looked up): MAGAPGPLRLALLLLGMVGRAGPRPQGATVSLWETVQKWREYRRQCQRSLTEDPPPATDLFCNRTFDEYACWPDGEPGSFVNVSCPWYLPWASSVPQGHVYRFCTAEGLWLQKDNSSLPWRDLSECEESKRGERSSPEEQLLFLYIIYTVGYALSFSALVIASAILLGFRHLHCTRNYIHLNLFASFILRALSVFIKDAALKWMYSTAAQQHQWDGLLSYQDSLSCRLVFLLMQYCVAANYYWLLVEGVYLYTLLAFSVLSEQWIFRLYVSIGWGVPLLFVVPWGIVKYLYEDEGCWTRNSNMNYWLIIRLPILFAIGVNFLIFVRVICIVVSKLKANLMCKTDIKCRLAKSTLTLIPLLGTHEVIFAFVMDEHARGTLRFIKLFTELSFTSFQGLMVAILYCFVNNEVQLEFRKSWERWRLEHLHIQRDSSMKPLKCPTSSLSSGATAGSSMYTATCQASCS

Structure (SMILES)	Potency	activity change, negative = inhibition
Cc1cccc(NC(=O)CSCC(=O)N(C)Cc2ccc(Cl)c(Cl)c2)c1	inconclusive [inhibitor, partial curve, poor fit]	
CC(C)c1nc(CNC(=O)c2ccc(OC3CCN(Cc4ccccn4)CC3)cc2)cs1	inconclusive [inhibitor, single point]	
COc1ccc(CN2C(=O)CC(Cc3cc(C)cc(C)c3)C2=O)cc1OC (centres undefined)	inconclusive [inhibitor, partial curve, poor fit]	
CC(C)C[C@H]1CNC(=S)N1C[C@H]1CCCN1C[C@H](Cc1ccc(O)cc1)N1C[C@H](CC(C)C)N(CC2CCCCCC2)C1=S	inconclusive [inhibitor, partial curve, poor fit]	
COC(=O)C(c1ccccc1)C(CC(=O)c1ccccc1)c1ccccc1 (centres undefined)		inactive: 7.46%
Oc1cccc(/C=C/c2ccc3cccc(O)c3n2)c1	inconclusive [inhibitor, partial curve, poor fit]	
C=CCOC(=O)C1=C(C)N(C)C(=O)NC1c1cc2c(cc1Br)OCO2 (centres undefined)	inconclusive [inhibitor, single point]	
Cc1cc(C(C)(C)C)cc(C)c1CCNC(=O)c1c(C)noc1C	inconclusive [inhibitor, single point]	
CC(=O)C1C(=O)C=C(c2cccs2)CC1c1ccccc1 (centres undefined)	inconclusive [inhibitor, partial curve, poor fit]	
CCc1ccc(S(=O)(=O)NCc2ccc(C(=O)NCCN(Cc3ccccc3)C(C)C)cc2)cc1	inconclusive [inhibitor, single point]	
O=C(C1=C[C@H](c2csc3ccccc23)C[C@H](OCc2ccc(CO)cc2)O1)N1CCCCCCC1	inconclusive [inhibitor, partial curve, poor fit]	
CC1(C(=O)NS(=O)(=O)c2cccc(Cl)c2)CCN1C(=O)C1(c2ccc(Cl)cc2)CCC1 (centres undefined)	inconclusive [inhibitor, partial curve]	
COc1ccc(-c2cc3nccc(-c4cc(Cl)c(C)cc4O)n3n2)cc1		inactive: -20.2%
FC(F)(F)c1ccc2c(c1)N1CCCC1CN2 (centres undefined)	inconclusive [inhibitor, single point]	
CCn1c(C(=O)N2CCCC(C(=O)N3CCN(c4ccccc4)CC3)C2)cc2sccc21 (centres undefined)		inactive: -1.83%
C=CCn1c(NC(C)c2cc(Cl)ccc2O)nc2ccccc21 (centres undefined)	inconclusive [inhibitor, partial curve, poor fit]	
O=c1nc(N2CCOCC2)nc(N/N=C/c2ccc3c(c2)OCO3)[nH]1	inconclusive [inhibitor, partial curve, poor fit]	
COCCn1c(N)c(N(Cc2ccccc2)C(=O)c2cc3ccccc3o2)c(=O)[nH]c1=O		inactive: 3.56% [at 0.307 µM]
COc1ccc(C(CCN2CCN(c3ccccc3)CC2)c2c(O)cc(OC)cc2OC)cc1 (centres undefined)	inconclusive [inhibitor, single point]	
CC1=C(C(=O)Nc2ccccc2)C(c2ccc(C)o2)n2c(s/c(=C/c3ccccc3)c2=O)=N1 (centres undefined)	inconclusive [inhibitor, partial curve, poor fit]	

Structure (SMILES)	Potency	activity change, negative = inhibition
CCc1ccc(OCC(=O)O/N=C(\N)c2ccccn2)cc1	inconclusive [inhibitor, single point]	
NS(=O)(=O)c1ccc(NCc2ccccc2OCc2ccccc2F)cc1		inactive: 14%
CC(C)=CCC/C(C)=C/CNC(=O)C[C@H]1C[C@H](C(=O)N2CCOCC2)[C@@]2(CCC3CCCC3)c3[nH]c4cc(CCC(=O)N(C)C)ccc4c3CCN2C1=O	inconclusive [inhibitor, single point]	
O=S(=O)(c1ccc2nc(Nc3cccc(F)c3)ccc2c1)N1CCCC1	inconclusive [inhibitor, partial curve, poor fit]	
Cc1ccc(CN(C)CC(=O)Nc2ccc3c(c2)CCC3)cc1	inconclusive [inhibitor, single point]	
COc1ccc(C(C#N)N2N=C(c3ccccc3)CC2c2ccccc2)cc1OC (centres undefined)	inconclusive [inhibitor, single point]	
O=C(Nc1cc(-c2ccccc2)nn1-c1ccccc1F)c1ccc([N+](=O)[O-])cc1	inconclusive [inhibitor, single point]	
O=C(c1ccco1)c1n[nH]nc1-c1ccccc1		inactive: 2.91%
Cc1ccc(S(=O)(=O)NCC(Nc2cccc(Cl)c2)c2ccccc2)cc1 (centres undefined)	active: 11.2 µM	
Cc1nn(CC(=O)Nc2ccc(Cl)cn2)c(C)c1Br		inactive: -14.5%
COc1cc(OC)c([N+](=O)[O-])cc1/C=N/NC(=O)c1ccncc1	inconclusive [inhibitor, single point]	
CN(C)CC1CCCCC1C1(O)c2ccccc2CSc2sccc21 (centres undefined)	inconclusive [inhibitor, partial curve, poor fit]	
C/C(=N\Nc1cccc([N+](=O)[O-])c1)c1cc(F)ccc1O	inconclusive [inhibitor, partial curve]	
CCCc1cc2c(cc1NC(=O)c1ccc(C(C)(C)C)cc1)OCO2	inconclusive [inhibitor, single point]	
CCOc1ccccc1C1C(C(=O)Nc2ccccc2)=C(C)Nc2c(C(=O)Nc3ccc(F)cc3)cnn21 (centres undefined)	inconclusive [inhibitor, single point]	
COc1cc(C(=O)NC(=S)Nc2ccc(Cc3ccncc3)cc2)cc(OC)c1OC	inconclusive [inhibitor, single point]	
COc1ccc(-c2noc(-c3nnn(-c4ccc(C(C)C)cc4)c3C)n2)cc1OC		inactive: 7.5%
Cc1cc(Nc2cccc(Cl)c2)nc2ccc(NC(=O)c3cccc(N(C)C)c3)cc12	active: 5.62 µM	
COc1ccccc1C(=O)Nc1onc2c1CCCC2	inconclusive [inhibitor, partial curve, poor fit]	
